Experimental data published in the CheMixHub viscosity set.
The source gives many values for each of these; only a part stands here.

Assay: xn = mol fraction of the nth substance listed

C1CCOC1 + O
Conditions	viscosity [mPa·s]
298 K, 101.3 kPa, x1 = 0.027	1.199
298 K, 101.3 kPa, x1 = 0.059	1.5
298 K, 101.3 kPa, x1 = 0.097	1.71
298 K, 101.3 kPa, x1 = 0.14	1.785
298 K, 101.3 kPa, x1 = 0.2	1.718
298 K, 101.3 kPa, x1 = 0.27	1.529
298 K, 101.3 kPa, x1 = 0.37	1.259
298.15 K, 101.3 kPa, x1 = 0.0588	1.49
298.15 K, 101.3 kPa, x1 = 0.1427	1.732
298.15 K, 101.3 kPa, x1 = 0.2725	1.49
298.15 K, 101.3 kPa, x1 = 0.4998	0.9234
308.15 K, 101 kPa, x1 = 0.1001	1.317
308.15 K, 101 kPa, x1 = 0.1199	1.345
308.15 K, 101 kPa, x1 = 0.1499	1.364
308.15 K, 101 kPa, x1 = 0.1699	1.358
308.15 K, 101 kPa, x1 = 0.2	1.325
308.15 K, 101 kPa, x1 = 0.2199	1.288
308.15 K, 101 kPa, x1 = 0.25	1.232
308.15 K, 101 kPa, x1 = 0.2701	1.204
308.15 K, 101 kPa, x1 = 0.3002	1.141
308.15 K, 101 kPa, x1 = 0.3499	1.054
308.15 K, 101 kPa, x1 = 0.3999	0.9465
308.15 K, 101 kPa, x1 = 0.4499	0.8537
308.15 K, 101 kPa, x1 = 0.5001	0.7841
308.15 K, 101 kPa, x1 = 0.5998	0.6571
308.15 K, 101 kPa, x1 = 0.7001	0.5626
308.15 K, 101 kPa, x1 = 0.8001	0.4917
308.15 K, 101 kPa, x1 = 0.9	0.4426
313.15 K, 101 kPa, x1 = 0.02	0.8139
313.15 K, 101 kPa, x1 = 0.05	0.9944
313.15 K, 101 kPa, x1 = 0.07	1.085
313.15 K, 101 kPa, x1 = 0.1001	1.161
313.15 K, 101 kPa, x1 = 0.1199	1.186
313.15 K, 101 kPa, x1 = 0.1499	1.204
313.15 K, 101 kPa, x1 = 0.1699	1.203
313.15 K, 101 kPa, x1 = 0.2	1.177
313.15 K, 101 kPa, x1 = 0.2199	1.146
313.15 K, 101 kPa, x1 = 0.25	1.094
313.15 K, 101 kPa, x1 = 0.3499	0.9442
313.15 K, 101 kPa, x1 = 0.3999	0.8569
313.15 K, 101 kPa, x1 = 0.4499	0.7789
313.15 K, 101 kPa, x1 = 0.5001	0.7128
313.15 K, 101 kPa, x1 = 0.5998	0.6065
313.15 K, 101 kPa, x1 = 0.7001	0.5207
313.15 K, 101 kPa, x1 = 0.8001	0.4565
313.15 K, 101 kPa, x1 = 0.9	0.4115
318.15 K, 101 kPa, x1 = 0.02	0.7338
318.15 K, 101 kPa, x1 = 0.05	0.8851
318.15 K, 101 kPa, x1 = 0.07	0.9613
318.15 K, 101 kPa, x1 = 0.1001	1.031
318.15 K, 101 kPa, x1 = 0.1199	1.052
318.15 K, 101 kPa, x1 = 0.1499	1.071
318.15 K, 101 kPa, x1 = 0.1699	1.07
318.15 K, 101 kPa, x1 = 0.2	1.054
318.15 K, 101 kPa, x1 = 0.2199	1.012
318.15 K, 101 kPa, x1 = 0.25	0.9698
318.15 K, 101 kPa, x1 = 0.2701	0.9661
318.15 K, 101 kPa, x1 = 0.3002	0.9237
318.15 K, 101 kPa, x1 = 0.3499	0.853
318.15 K, 101 kPa, x1 = 0.3999	0.7737
318.15 K, 101 kPa, x1 = 0.4499	0.7082
318.15 K, 101 kPa, x1 = 0.5001	0.6494
318.15 K, 101 kPa, x1 = 0.5998	0.5508
318.15 K, 101 kPa, x1 = 0.7001	0.4792
318.15 K, 101 kPa, x1 = 0.8001	0.4231
318.15 K, 101 kPa, x1 = 0.9	0.374
